# Results published in publication PMC10668032.
# Some of the results follow. At the low end of the ranking the order means little.
# Target: SIX1 homeodomain (reference allele) (UniProt Q15475)
# Test: universal protein binding microarray
# Conditions: Universal all-10-mer PBM (8x60K, AMADID 030236), 300 nM GST-tagged protein, Alexa Fluor 488 anti-GST; buffer, salt, pH and temperature not stated; high values mean tight binding; most listed sequences are background and not binding sites; double strand, one strand shown
row,Sequence,binding signal [E-score]
1,CCTCAAGG,0.117
2,ACCTTCAA,-0.13
3,AATCCGCG,0.2
4,ATAGAAAA,-0.17
5,TCGACGCA,-0.0232
6,ATCATGGA,0.171
7,CGAGGAAA,-0.111
8,ATGGTAAT,0.111
9,GACTGAGC,-0.112
10,CACGCGTA,0.0305
11,CCACACTC,0.0208
12,ATTGCCAG,0.0364
13,CAATGGTG,-0.0826
14,GCAACAGC,-0.191
15,AACATGTG,-0.104
16,ACTCGCAA,-0.116
17,CGGCCCGA,0.0288
18,AGCTCGCA,-0.0771
19,ACCATACT,0.0465
20,GTTAGAAA,-0.15
21,AATTTAAG,-0.138
22,AAATCTTG,-0.284
23,CGAACTAC,-0.0757
24,GGTCCTAC,-0.224
25,GCCAGCAA,-0.189

row,Sequence,binding signal [E-score]
1,GCCCGATA,0.33
2,CAGCGAAA,-0.251
3,CATGGGTC,0.0895
4,CTCCCCTA,0.152
5,GCCCGGAC,-0.201
6,TCCCTACA,0.021
7,AGGTATAG,0.262
8,TAATCTCA,0.186
9,CGTGTTTA,-0.123
10,ACTATGTC,-0.151
11,CCCCAGCG,-0.00653
12,AGTACCTG,0.0686
13,AGTGTAAT,-0.00985
14,ACCTCTGG,-0.0899
15,AGTTTGCA,-0.221
16,TTAAGGAA,-0.108
17,GTCGGCAA,-0.34
18,CAATTCAA,-0.0583
19,GTAGTAAA,-0.204
20,AACTGGTC,-0.133
21,GTGATGTA,0.0932
22,ATGCGTTG,-0.0451
23,CCGACATA,0.0799
24,ACGACCGA,-0.101
25,GGCGCGAC,-0.136

row,Sequence,binding signal [E-score]
1,CCCAATGA,0.0613
2,TACTTAAA,-0.134
3,CGAGAAAA,-0.24
4,ACTTCGCG,-0.151
5,GCACCTGA,-0.186
6,CAGGAATG,-0.179
7,GGTTATAA,-0.105
8,GGTAGCCA,-0.134
9,ATCCACCA,0.235
10,ACGACCCC,-0.0301
11,CCTCTCCG,-0.182
12,AACTGAGC,0.00265
13,CCCTCAGC,-0.00513
14,ACGTCGCG,-0.0436
15,AAACCCCG,0.0585
16,CCAGGACG,-0.0378
17,AGAAAGTA,-0.0383
18,ATGCCAAT,0.0513
19,ATCCCTTG,0.271
20,AGGCTCTC,-0.122
21,GGCGACGA,-0.221
22,GAGAGGAC,-0.021
23,CACGGATC,0.405
24,TATTACAA,0.0752
25,ATTGTCGC,-0.0619

row,Sequence,binding signal [E-score]
1,GCAGGAGC,-0.05
2,AGGTATTG,0.29
3,CTCTTGGC,-0.153
4,AATGTGGG,-0.0088
5,CTTTTGAA,-0.147
6,CATAGGAC,-0.197
7,CAGGCCCA,-0.114
8,CCCCCGCC,0.191
9,AGGTATTC,0.121
10,ATTTCCAA,-0.274
11,AAACGTAC,-0.172
12,CATCAAGA,-0.144
13,CTTTAAAC,-0.187
14,AAGGTACG,0.0146
15,CCGTTAAA,-0.19
16,ACATTGCA,-0.137
17,AGATTCCC,0.0722
18,CGAGCGTC,-0.147
19,TAAGTCTA,-0.141
20,CGTCCACA,-0.0608
21,ATGATATG,0.472
22,GAGGGCGC,-0.125
23,CGCAATAC,0.266
24,CTACAGTA,0.152
25,ACCGACAT,0.141

row,Sequence,binding signal [E-score]
1,ATCACGTC,0.189
2,GCTAACTA,-0.0989
3,CGCTTTAC,-0.16
4,TACAGGTA,0.244
5,AATAACGA,0.073
6,AATGTAGG,-0.211
7,AAAATTGT,-0.236
8,AGCCGCGG,-0.0318
9,ACCGCTCA,-0.0413
10,CTCGTGTA,0.158
11,CACATCCA,-0.112
12,AATCAGGT,0.0776
13,CTAGTCGC,-0.033
14,GAAGTAGA,-0.123
15,CAACTTGC,-0.267
16,CGGGGCAC,-0.0299
17,GAGCTTCA,-0.273
18,GGAGGGCA,-0.0322
19,CCGTGTGA,0.0686
20,GCGAGACC,-0.0484
21,ACTTCCAC,-0.105
22,GGCCTATA,-0.0709
23,GAGCAACA,-0.126
24,ACTGCACT,-0.154
25,AGGATACG,0.386

row,Sequence,binding signal [E-score]
1,CATGTCTA,-0.0322
2,CCACGAAG,-0.148
3,CAACCTCG,-0.0547
4,CGCCCACC,-0.145
5,CAGCGAAG,-0.295
6,CAATGCAA,-0.0829
7,AGTTCTCA,0.0838
8,CGCAGCTA,-0.13
9,CGAGAGAC,0.0143
10,GTTGAGCA,-0.123
11,AGTACACT,-0.0294
12,GATGCATA,0.0989
13,CTTTTGGA,-0.159
14,ACTAACGA,0.0582
15,CGCGCCAC,-0.206
16,AACGCAGG,-0.186
17,ATACCCTC,0.441
18,CCCTATCG,0.357
19,CCCCAAAA,-0.0366
20,AGCTTACA,-0.042
21,ACCAACAT,-0.0135
22,AACGATTA,0.0243
23,CTCCTTTC,-0.00379
24,ATGATCCC,0.448
25,GGGCACCA,-0.171

row,Sequence,binding signal [E-score]
1,TACAAGAA,-0.0314
2,GTATAAGA,0.224
3,GGCAGCAA,-0.335
4,CGAGCAAA,-0.256
5,CGGCAGCC,0.0495
6,AGCCCCAA,-0.0443
7,CCCGAAAA,0.0634
8,AGAGCAGG,-0.0175
9,GTAGTAAC,-0.0366
10,TATATCCA,0.335
11,ACGATCAG,0.197
12,ACACAAGG,-0.0763
13,GAACAATA,0.2
14,ATATGACG,0.227
15,CTACGCCA,-0.147
16,AAGATAGC,0.0922
17,CCCCATTA,0.00556
18,AGCTTTGA,-0.0794
19,CAGCTATA,0.172
20,GAATACAA,0.108
21,AACGAAAC,0.0183
22,GTGTCGAA,0.142
23,ATTTAACC,0.0553
24,GCTACGTA,0.144
25,ACCTACGC,-0.131

row,Sequence,binding signal [E-score]
1,CATGGCGA,-0.0329
2,CCCATTCG,-0.167
3,AAGCACTG,-0.134
4,TAACCGCA,0.0847
5,GCGAGTAC,0.033
6,ACCTCCTG,-0.0308
7,GGGTGCTA,0.0697
8,TCAGATCA,0.243
9,TACCACAA,0.0676
10,GTATGGAA,-0.162
11,AATTCGCA,-0.168
12,GCGAAAGC,-0.19
13,AGACCGCA,-0.159
14,GTGTAGGA,0.129
15,CCAGTACG,-0.0984
16,GTCAGAAC,-0.243
17,GACATCCC,-0.0914
18,AGCGTTGA,-0.133
19,AGGTCAAC,-0.18
20,CGAACCTC,0.012
21,CGTCAGAG,-0.0786
22,CATCCAGA,0.13
23,GAATGTTA,-0.18
24,GTACGTTA,-0.203
25,ACGTAGAT,0.047

row,Sequence,binding signal [E-score]
1,AAGTGCAA,-0.324
2,CATATACC,0.282
3,AAACTTGT,-0.294
4,ATGAGTTA,-0.151
5,GCGTCTAA,-0.0322
6,ATGTTAAC,-0.092
7,CGCAGATC,0.214
8,CTACGGAG,-0.133
9,ATTCACCA,-0.148
10,AGCGGCAG,-0.173
11,ATAGACCG,0.000455
12,GATCGTAA,0.216
13,ATGGAAGG,-0.28
14,ATGACTTA,-0.166
15,ATTCTACA,-0.0181
16,AGCAGGCT,0.0674
17,TGAACGAA,-0.271
18,AAGACGCT,-0.216
19,CTGTCGTA,-0.123
20,ACCCCATC,0.12
21,ACCTCCAA,-0.0084
22,GCGGAGCC,-0.198
23,AGGCCATA,0.0051
24,CACTAAGA,-0.00227
25,CACCGGAA,0.143

row,Sequence,binding signal [E-score]
1,ATAGGTTC,0.167
2,AAAGATCG,0.0621
3,ATACAATA,0.356
4,GAGGTAGA,0.0912
5,GACACGCC,0.0739
6,GTAAAGGA,-0.178
7,ATAAGAAG,0.0394
8,GCGATCGA,0.199
9,CACGGTAC,-0.108
10,CACTGTGA,0.131
11,AGCTTAAG,-0.0998
12,AGGCCTAG,-0.0825
13,ATCCCGAG,0.257
14,ATACCACG,0.291
15,CCGTGGTC,-0.0708
16,AAGTAGTG,0.116
17,ACGGGAGC,-0.0868
18,ATGTTCGA,-0.0952
19,ACCAAAAG,-0.0789
20,ACATGTCG,-0.18
21,AATCCAGT,-0.0621
22,ACACTTTC,0.0154
23,AAAAAGCG,-0.164
24,GGGAGCCC,-0.253
25,AAGTGGCA,-0.199

row,Sequence,binding signal [E-score]
1,GGGGCTAA,-0.0849
2,ACAAATAT,-0.0523
3,AGCATTCG,-0.16
4,ATCTCTAC,0.107
5,CTGGTCTC,-0.0355
6,ACATACAT,0.0714
7,CCGTAAAG,-0.0171
8,ACATCATA,0.0305
9,TCATCTAA,0.11
10,AATGTTTG,-0.186
11,GCCGTGCC,-0.0942
12,CATGCACA,-0.0972
13,CACGAATA,-0.0176
14,TCACGCGA,0.102
15,ATCAGGCC,0.114
16,GACTGACC,-0.208
17,AAGCGTCT,0.0223
18,AGCTATCA,0.313
19,CTAGAGTA,0.0823
20,CGCCTCTC,0.00732
21,AACGTGCA,-0.181
22,CGCGAATA,0.052
23,ACAATAGA,-0.0929
24,ATGCGGTA,0.265
25,AGAACCAA,-0.163

row,Sequence,binding signal [E-score]
1,CGGTAGAA,-0.191
2,ACGTGATG,-0.0265
3,ACGCTCGC,-0.346
4,CGTTACTC,-0.189
5,AGCGTCCG,-0.217
6,CCGGCGTA,0.0553
7,CAAGTGTG,-0.138
8,ACAGTTAT,-0.023
9,GTGGTACA,-0.0736
10,GTCTGACA,-0.13
11,CTTTACGA,-0.154
12,AAAAGCCA,-0.158
13,GAGCTCCA,-0.0935
14,CAGGTACC,-0.198
15,AACATGTT,-0.188
16,CAGTGGAG,0.0211
17,CCCTTTAA,-0.0161
18,GCACACGA,0.0598
19,CCAGACAC,0.128
20,CCCCTCAA,-0.00329
21,GAAGTACC,-0.103
22,CGCCGCGA,0.0141
23,AATAGCCA,-0.0045
24,ACCTTAGA,-0.0313
25,ACATCCTC,0.09

row,Sequence,binding signal [E-score]
1,CCATATCA,0.472
2,CACCGTTA,-0.0498
3,CACCCGGC,0.192
4,CTAGGGTC,-0.208
5,GGCGAGCA,-0.137
6,GTGTAACA,0.0913
7,CTATATAG,0.182
8,GGGCGGGA,0.0521
9,ACCTTGCC,-0.306
10,CAAAACGG,-0.105
11,TGACTTAA,-0.2
12,CCGCGCTC,-0.0987
13,CACAGGGC,-0.322
14,ACTGAACG,-0.301
15,CTGAACGA,-0.183
16,ACTTTCCC,-0.208
17,CGGGGTCC,-0.0447
18,CCCCAGGA,0.153
19,TATGCTCA,-0.00662
20,ACAGGCGT,-0.135
21,ACTGCGTA,-0.0835
22,CCGAAGAG,-0.0447
23,CCATGTAC,0.0222
24,ATACGGTC,0.256
25,GCAGAAAC,-0.254

row,Sequence,binding signal [E-score]
1,TGAGACAA,-0.00214
2,CCCGACGA,0.0154
3,AGCTATAA,-0.00342
4,ATAAACAC,-0.00724
5,AACTAAAA,-0.132
6,ACATTCGA,-0.0494
7,CCTGCACC,-0.147
8,GTACACCA,0.233
9,CATTGAGG,-0.117
10,AGCAGCAA,-0.235
11,AGGAGTAT,0.309
12,ATAAATAA,-0.0823
13,AAGAACAA,-0.145
14,AACCGGCT,0.0213
15,ATTCTTTG,-0.0667
16,TCAGGCAA,-0.224
17,AAAGTCCG,-0.155
18,CGACCTCC,-0.0335
19,TAACACAA,0.0612
